# Test results published in the supplement of paper PMC3334620.
# In all, about 33,000 sequences were measured (“E-score (-0.5 to 0.5)”: median about -0.041, highest 2% from about 0.37 on). The list shows a part of the results.
# Target: T1, Ecm22 (UniProt Q05958)
# T1 sequence: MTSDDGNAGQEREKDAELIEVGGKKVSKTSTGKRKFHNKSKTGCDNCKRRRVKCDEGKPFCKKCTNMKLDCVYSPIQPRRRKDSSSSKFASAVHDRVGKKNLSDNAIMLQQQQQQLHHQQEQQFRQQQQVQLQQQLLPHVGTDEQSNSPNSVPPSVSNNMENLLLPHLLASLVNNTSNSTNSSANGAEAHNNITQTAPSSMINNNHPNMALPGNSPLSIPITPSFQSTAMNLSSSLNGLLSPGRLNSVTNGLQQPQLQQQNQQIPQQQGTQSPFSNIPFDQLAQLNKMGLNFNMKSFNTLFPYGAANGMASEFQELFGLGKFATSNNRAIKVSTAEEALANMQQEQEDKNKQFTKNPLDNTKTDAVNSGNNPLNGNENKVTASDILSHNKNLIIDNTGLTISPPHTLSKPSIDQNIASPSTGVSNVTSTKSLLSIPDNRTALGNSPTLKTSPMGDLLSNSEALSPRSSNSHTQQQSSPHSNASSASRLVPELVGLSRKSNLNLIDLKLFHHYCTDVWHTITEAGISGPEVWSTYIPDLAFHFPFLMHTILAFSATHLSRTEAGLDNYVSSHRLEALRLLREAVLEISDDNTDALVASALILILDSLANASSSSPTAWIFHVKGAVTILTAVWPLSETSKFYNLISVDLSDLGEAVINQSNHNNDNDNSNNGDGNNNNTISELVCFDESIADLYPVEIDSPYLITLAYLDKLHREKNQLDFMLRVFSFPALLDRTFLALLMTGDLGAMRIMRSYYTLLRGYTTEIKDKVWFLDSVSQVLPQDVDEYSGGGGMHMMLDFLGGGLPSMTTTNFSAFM
# Assay: PBM E-score (8-mer binding enrichment) (E-score (-0.5 to 0.5)); higher = stronger / more preferred TF binding; most listed sequences are background and not binding sites
# Settings: protein concentration: 200 nM; construct: GST-full length
# Experimental: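 Universal 'all 10-mer' protein binding microarrays (Agilent AMADID 015681) probed with GST-tagged S. cerevisiae TFs (full-length or DBD) made by in vitro transcription/translation (PURExpress), about 100-200 nM. Bound TF was detected with fluorescent anti-GST. Each ungapped 8-mer (which stands for itself and its reverse complement) is scored by the PBM enrichment score (E-score), a modified Wilcoxon-Mann-Whitney statistic from -0.5 to +0.5, computed with the Universal PBM Analysis Suite. Scale: above 0.35 generally sequence-specific binding.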
row,Sequence,PBM E-score
1,ACAGAGAT,-0.093
2,ATTGGGTG,-0.128
3,ATTTTGCC,-0.176
4,CATCGTGG,-0.0323
5,TGCAGTAA,-0.162
6,ACCGTGGG,-0.161
7,ACTAGGCA,-0.198
8,GTCCGGAA,-0.0405
9,AGGGAGAT,-0.275
10,AAGTGAAC,0.0448
11,CAAATGTG,0.0621
12,GTGCTCCA,-0.163
13,ACAAAAGC,-0.0849
14,ATGATACC,0.146
15,AACGCTGC,0.00979
16,GCTCGTAA,0.451
17,ACTCGGCA,0.181
18,GCCACTAA,-0.252
19,GCACACAA,-0.0514
20,AAGTGTCA,-0.191
21,AAGTAAAA,-0.109
22,AATCCAAG,-0.0432

row,Sequence,PBM E-score
1,TACCTATA,-0.0275
2,TCCGGACA,-0.131
3,GTTTAATA,0.119
4,AAGCCGAA,-0.0177
5,ACTGACTA,-0.00261
6,ACCTCTAT,-0.113
7,CGCCGCCA,-0.163
8,CCGTACCC,0.433
9,AAAACCTA,0.0959
10,GGGCCTAC,-0.146
11,CACTGGCG,-0.189
12,ATGTCCCG,-0.0417
13,GCACCACC,-0.27
14,CCTACAAA,-0.165
15,ACTGTGCT,-0.234
16,CGGTGAGA,0.00317
17,AGACCCGG,-0.222
18,ACCCGAGA,0.248
19,CAATACAC,0.0386
20,GACGACAA,0.155
21,AAACGCTA,0.0339
22,GTGTTACA,-0.0116

row,Sequence,PBM E-score
1,AGGCGATA,-0.0429
2,GCCGTAGC,0.163
3,CGTCAGAG,-0.146
4,CTATTAAG,-0.193
5,AGCCGCCA,-0.264
6,TCACGGAA,0.00788
7,AAGCATCC,-0.241
8,CGGGCTCA,0.124
9,AACCACAC,0.103
10,TATCAATA,0.0585
11,AGTAAAAT,-0.03
12,ATTGGAAA,-0.124
13,GCCTAACA,-0.218
14,GTACCTTA,0.249
15,CAATGCAA,-0.0622
16,CGGAGACC,-0.0617
17,CTGACAGA,-0.0832
18,AAAACGTC,0.0734
19,CACATCGC,-0.0308
20,AGGCCCGC,0.00067
21,AAAGCCAC,-0.102
22,TATGTACA,-0.111

row,Sequence,PBM E-score
1,GTCAAAAC,0.0228
2,GATAGTAA,0.0119
3,CCCACTAG,-0.32
4,GTGAGCTA,-0.15
5,TGCATCAA,-0.0563
6,GGCGCATA,-0.0416
7,ATATAAAG,-0.0703
8,ACTGCCTC,-0.0892
9,CAAGACCG,0.106
10,CTCTGAAG,-0.0683
11,CATGAGAC,0.0346
12,ATCATCCA,-0.00974
13,AACCGTCT,-0.038
14,TGGCCTAA,-0.212
15,CGACATAG,0.0415
16,TGGCATAA,0.0462
17,CGTACGCA,0.36
18,TCCTGCAA,-0.0785
19,GGGGCGAC,-0.205
20,TGACTGCA,-0.0938
